Results taken from PubChem BioAssay (Tox21).
Where “and” joins values, the source holds several entries; their conditions need not be identical. Identical values can stand only once. The shares of active, inactive and inconclusive entries below differ from those in the screen. For part of these data: A potency beside an inconclusive call is a rough fit, not a confirmed value. A structure can be active in one record and inactive in another. Calls of active or inactive are those of the source. Unless noted, calls come from the whole dose curve; as a rule, active = well fitted curve in the direction sought with a large enough effect in the repeat runs; inconclusive = weak or mixed curves; inactive = no such curve, though single readings can be large; an effect the other way counts as inactive or inconclusive.

What was measured:
[1] = qHTS assay to identify small molecule that activate the aryl hydrocarbon receptor (AhR) signaling pathway - cell viability counter screen (AID 743086); note: potency is the fitted concentration of half-maximal effect; nearly all actives have a fitted effect of over 45% in size
Outline: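 Cytotoxicity counter screen: CellTiter-Fluor signal (30 min, 37 C) in 4000 HepG2 cells/well carrying the DRE-luciferase reporter, following 24 h compound exposure at 37 C.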

[2] = target: Peroxisome proliferator-activated receptor gamma (Homo sapiens) (UniProt P37231); assay: qHTS assay to identify small molecule antagonists of the peroxisome proliferator-activated receptor gamma (PPARg) signaling pathway (AID 743191; calls by dose curve; note: potency is the fitted concentration of half-maximal effect; nearly all actives have a fitted effect of over 30% in size); conditions: HEK293H PPARg-UAS-bla, beta-lactamase ratio, antagonist, 17 h; ratio activity, negative = inhibition: at 62.6 µM (top of the series) unless noted
Chain of UniProt P37231 (P37231 whole entry, looked up): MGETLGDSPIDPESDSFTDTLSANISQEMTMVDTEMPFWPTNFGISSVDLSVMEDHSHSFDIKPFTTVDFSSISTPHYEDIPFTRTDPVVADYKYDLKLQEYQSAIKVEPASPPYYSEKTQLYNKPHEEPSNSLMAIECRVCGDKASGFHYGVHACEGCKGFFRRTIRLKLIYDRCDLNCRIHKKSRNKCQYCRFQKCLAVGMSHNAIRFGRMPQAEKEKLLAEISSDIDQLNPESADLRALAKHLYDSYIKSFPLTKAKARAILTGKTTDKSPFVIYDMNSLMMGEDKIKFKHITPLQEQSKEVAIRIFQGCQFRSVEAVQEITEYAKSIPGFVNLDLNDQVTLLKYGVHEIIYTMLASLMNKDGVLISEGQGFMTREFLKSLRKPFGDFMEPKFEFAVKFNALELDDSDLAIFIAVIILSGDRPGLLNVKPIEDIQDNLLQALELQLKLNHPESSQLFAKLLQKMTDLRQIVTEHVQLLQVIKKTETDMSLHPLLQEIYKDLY
Outline: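 Beta-lactamase reporter under UAS control in HEK293H PPARg-bla cells; compound treatment 17 h at 37C. Read-out: fluorescence intensity after 1 h room-temperature incubation with LiveBLAzer B/G FRET substrate.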

[3] = qHTS assay for small molecule agonists of the antioxidant response element (ARE) signaling pathway (AID 743202; active = well fitted activation curve with a large enough effect in the signal ratio in the repeat runs, not every such curve was filed as active; inconclusive = weak or mixed curves, or effect the other way; inactive = no such curve, though single readings can be large or run the other way; the % refers to the signal ratio; note: potency is the fitted concentration of half-maximal effect); conditions: HepG2 ARE-bla reporter, beta-lactamase FRET, 16 h; activation: at 73.3 µM (top of the series) unless noted
Outline: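 Quantitative high-throughput format in HepG2 cells bearing an integrated ARE-beta-lactamase reporter. Compound exposure lasted 16 h at 37 C, and fluorescence was read 2 h after adding LiveBLAzer B/G substrate at room temperature.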

[4] = qHTS assay for small molecule activators of the heat shock response signaling pathway - cell viability counter screen (AID 743209); conditions: HSE-bla HeLa viability, CellTiter-Glo luminescence, 5 h; activity change, negative = cytotoxicity: at 62.6 µM (top of the series) unless noted; note: nearly all actives have a fitted effect of over 50% in size; note: potency is the fitted concentration of half-maximal effect; for activity change, negative = cytotoxicity: % is set by controls: 0 for no effect and ±100 for the full control effect
Outline: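 HSE-bla HeLa cells plated overnight, then exposed to Tox21 compounds (23 nL in DMSO) for 5 h at 37 C. After the bla reporter read, CellTiter-Glo was added in the same wells and luminescence read after 30 min at room temperature.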

[5] = target: Peroxisome proliferator-activated receptor delta (Homo sapiens) (UniProt Q03181); assay: qHTS assay to identify small molecule agonists of the peroxisome proliferator-activated receptor delta (PPARd) signaling pathway (AID 743212; calls by dose curve; note: potency is the fitted concentration of half-maximal effect); conditions: HEK293H PPARd-UAS-bla, beta-lactamase FRET ratio, 17 h; activation: at 62.6 µM (top of the series) unless noted
Chain of UniProt Q03181 (Q03181 whole entry, looked up): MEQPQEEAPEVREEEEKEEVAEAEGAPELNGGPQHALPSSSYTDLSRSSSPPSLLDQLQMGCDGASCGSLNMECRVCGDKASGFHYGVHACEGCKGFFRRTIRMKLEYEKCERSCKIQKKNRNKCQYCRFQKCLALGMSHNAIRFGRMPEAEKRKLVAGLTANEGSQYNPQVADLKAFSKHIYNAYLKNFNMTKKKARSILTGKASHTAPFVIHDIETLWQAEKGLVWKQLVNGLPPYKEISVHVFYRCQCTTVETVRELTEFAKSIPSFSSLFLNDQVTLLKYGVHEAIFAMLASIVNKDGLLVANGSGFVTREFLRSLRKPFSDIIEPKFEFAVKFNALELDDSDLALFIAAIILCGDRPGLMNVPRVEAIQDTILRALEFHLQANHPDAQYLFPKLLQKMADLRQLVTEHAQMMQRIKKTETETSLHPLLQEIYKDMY
Outline: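 HEK293H PPARd-bla cells; 5 h preincubation 37 C/5% CO2; compound (DMSO) 37 C; LiveBLAzer B/G FRET substrate 2 h RT; fluorescence intensity.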

[6] = qHTS assay to identify small molecule antagonists of the peroxisome proliferator-activated receptor delta (PPARd) signaling pathway - cell viability counter screen (AID 743213); conditions: PPARd-bla HEK293H viability, CellTiter-Glo luminescence, 17 h; viability change, negative = cytotoxic: at 62 µM (top of the series) unless noted; note: nearly all actives have a fitted effect of over 50% in size; note: potency is the fitted concentration of half-maximal effect; for viability change, negative = cytotoxic: % is set by controls: 0 for no effect and ±100 for the full control effect
Outline: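 PPARd-bla HEK293H cells (3000/well) got compound plus 300 nM L165041 agonist for 17 h at 37 C. Viability in the same wells came from CellTiter-Glo luminescence after 30 min at room temperature.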

[7] = target: Bile acid receptor (Homo sapiens) (UniProt Q96RI1); assay: qHTS assay to identify small molecule antagonists of the farnesoid-X-receptor (FXR) signaling pathway (AID 743217; active = well fitted inhibition curve with a large enough effect in the signal ratio in the repeat runs, not every such curve was filed as active; inconclusive = weak or mixed curves, or effect the other way; inactive = no such curve, though single readings can be large or run the other way; the % refers to the signal ratio; note: potency is the fitted concentration of half-maximal effect); conditions: HEK293T FXR-UAS-bla, beta-lactamase ratio, CDCA-stimulated, 16 h; activity change, negative = inhibition: at 62.6 µM (top of the series) unless noted
Chain of UniProt Q96RI1 (Q96RI1 whole entry, looked up): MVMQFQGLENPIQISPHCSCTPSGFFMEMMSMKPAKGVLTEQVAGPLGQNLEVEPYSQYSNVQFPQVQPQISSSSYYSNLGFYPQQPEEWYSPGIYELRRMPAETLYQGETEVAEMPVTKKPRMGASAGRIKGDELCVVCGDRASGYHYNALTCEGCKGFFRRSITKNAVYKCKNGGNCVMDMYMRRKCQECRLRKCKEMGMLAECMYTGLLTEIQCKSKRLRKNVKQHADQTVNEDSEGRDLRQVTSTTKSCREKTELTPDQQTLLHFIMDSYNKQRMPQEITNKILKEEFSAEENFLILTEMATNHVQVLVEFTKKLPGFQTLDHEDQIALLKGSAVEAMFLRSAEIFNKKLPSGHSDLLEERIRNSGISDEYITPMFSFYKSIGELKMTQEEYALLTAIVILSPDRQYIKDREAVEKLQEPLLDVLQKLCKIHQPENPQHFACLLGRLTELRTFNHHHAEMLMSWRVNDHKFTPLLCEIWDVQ
Outline: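 FXR-UAS-bla HEK 293T cells (beta-lactamase reporter) given compound plus chenodeoxycholic acid (50 uM final), 16 h at 37C. LiveBLAzer B/G FRET substrate added for 2 h at room temperature; fluorescence read.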

[8] = qHTS assay to identify small molecule agonists of the farnesoid-X-receptor (FXR) signaling pathway - cell viability counter screen (AID 743218); conditions: FXR-bla HEK293T viability, CellTiter-Glo luminescence, 16 h; viability change, negative = cytotoxic: at 62.6 µM (top of the series) unless noted; note: potency is the fitted concentration of half-maximal effect; nearly all actives have a fitted effect of over 45% in size
Outline: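 FXR-UAS-bla HEK 293T cells exposed to compounds for 16 h at 37C. Cytotoxicity read in the same wells by CellTiter-Glo luminescence after 30 min at room temperature, following the beta-lactamase FRET read.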

[9] = target: Bile acid receptor (Homo sapiens) (UniProt Q96RI1); assay: qHTS assay to identify small molecule agonists of the farnesoid-X-receptor (FXR) signaling pathway (AID 743220; active = well fitted activation curve with a large enough effect in the signal ratio in the repeat runs, not every such curve was filed as active; inconclusive = weak or mixed curves, or effect the other way; the % refers to the signal ratio; note: potency is the fitted concentration of half-maximal effect); conditions: HEK293T FXR-UAS-bla, beta-lactamase FRET ratio, 16 h; activation: at 62.6 µM (top of the series) unless noted
Outline: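 Beta-lactamase reporter under UAS control in GeneBLAzer FXR HEK 293T cells (5000/well) measured with LiveBLAzer FRET substrate after 2 h at room temperature. Compound exposure lasted 16 h at 37C.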

[10] = qHTS assay to identify small molecule antagonists of the farnesoid-X-receptor (FXR) signaling pathway - cell viability counter screen (AID 743221; active = well fitted cell-killing curve with a large enough effect in the repeat runs, not every such curve was filed as active; inconclusive = weak or mixed curves, or effect the other way; inactive = no such curve, though single readings can be large or run the other way; note: nearly all actives have a fitted effect of over 50% in size; note: potency is the fitted concentration of half-maximal effect; for activity change, negative = cytotoxicity: % is set by controls: 0 for no effect and ±100 for the full control effect); conditions: FXR-bla HEK293T viability, CellTiter-Glo luminescence, 16 h; activity change, negative = cytotoxicity: at 62.6 µM (top of the series)
Outline: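 Multiplexed counter screen: viability of FXR-bla HEK 293T cells under agonist stimulation by chenodeoxycholic acid (50 uM, final) and test compound for 16 h at 37 C, measured by CellTiter-Glo luminescence in the reporter wells.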

[11] = target: Vitamin D3 receptor (Homo sapiens) (UniProt P11473); assay: qHTS assay to identify small molecule agonists of the vitamin D receptor (VDR) signaling pathway (AID 743222; calls by dose curve; note: % is set by controls: 0 for no effect and ±100 for the full control effect); conditions: HEK293T VDR-UAS-bla, beta-lactamase FRET ratio, 16 h; activation: at 63.5 µM (top of the series) unless noted
Chain of UniProt P11473 (P11473 whole entry, looked up): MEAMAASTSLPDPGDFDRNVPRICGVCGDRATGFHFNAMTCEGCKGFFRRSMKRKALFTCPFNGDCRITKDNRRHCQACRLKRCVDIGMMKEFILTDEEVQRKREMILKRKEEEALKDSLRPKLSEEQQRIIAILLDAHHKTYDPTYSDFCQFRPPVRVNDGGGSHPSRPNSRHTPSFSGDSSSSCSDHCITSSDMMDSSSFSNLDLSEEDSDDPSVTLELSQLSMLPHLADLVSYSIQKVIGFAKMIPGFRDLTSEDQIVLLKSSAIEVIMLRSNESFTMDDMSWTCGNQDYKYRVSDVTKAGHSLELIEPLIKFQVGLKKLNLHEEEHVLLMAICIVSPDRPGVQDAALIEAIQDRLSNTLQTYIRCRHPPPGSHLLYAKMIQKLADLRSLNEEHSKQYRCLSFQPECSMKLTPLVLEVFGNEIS
Outline: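 VDR-bla cells plated 4 h at 37 C, then exposed to compounds for 16 h at 37 C. Beta-lactamase reporter activity measured by fluorescence after 2 h room-temperature loading with LiveBLAzer B/G FRET substrate.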

[12] = target: Vitamin D3 receptor (Homo sapiens) (UniProt P11473); assay: qHTS assay to identify small molecule antagonists of the vitamin D receptor (VDR) signaling pathway (AID 743223; active = well fitted inhibition curve with a large enough effect in the signal ratio in the repeat runs, not every such curve was filed as active; inconclusive = weak or mixed curves, or effect the other way; inactive = no such curve, though single readings can be large or run the other way; the % refers to the signal ratio; note: potency is the fitted concentration of half-maximal effect); conditions: VDR-UAS-bla HEK293T, beta-lactamase FRET ratio, 16 h; activity change, negative = inhibition: at 61 µM (top of the series) unless noted
Outline: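 Cells carrying a VDR-driven beta-lactamase reporter (VDR-bla) were co-treated with compound and 3 nM final 1alpha,25-dihydroxyvitamin D3 for 16 h at 37C; reporter activity was measured as FRET substrate fluorescence after 2 h at room temperature.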

[13] = qHTS assay to identify small molecule agonists of the vitamin D receptor (VDR) signaling pathway - cell viability counter screen (AID 743224); conditions: VDR-bla HEK293T viability, CellTiter-Glo luminescence, 16 h; activity change, negative = cytotoxicity: at 62.6 µM (top of the series) unless noted; note: potency is the fitted concentration of half-maximal effect; nearly all actives have a fitted effect of over 50% in size
Outline: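 VDR-bla cells, 4 h after plating, exposed to compounds for 16 h at 37C; viability then read in the same wells as CellTiter-Glo luminescence after 30 min at room temperature, following the bla FRET read.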

[14] = qHTS assay to identify small molecule antagonists of the vitamin D receptor (VDR) signaling pathway - cell viability counter screen (AID 743225); conditions: VDR-bla HEK293T viability, CellTiter-Glo luminescence, 16 h; viability change, negative = cytotoxic: at 61 µM (top of the series) unless noted
Outline: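 HEK293T VDR-bla; cpd + 1a,25-(OH)2D3 3 nM final, 16 h 37C/5% CO2; B/G FRET substrate 2 h RT; then CellTiter-Glo 30 min RT, luminescence.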

[15] = qHTS assay to identify small molecule antagonists of the peroxisome proliferator-activated receptor gamma (PPARg) signaling pathway - cell viability counter screen (AID 743194); conditions: PPARg-bla HEK293H viability, CellTiter-Glo luminescence, 17 h, co-treated with 50 nM rosiglitazone; activity change, negative = cytotoxicity: at 62.6 µM (top of the series) unless noted; note: potency is the fitted concentration of half-maximal effect; nearly all actives have a fitted effect of over 55% in size
Outline: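 Viability was measured as CellTiter-Glo luminescence in GeneBLAzer PPARg UAS-bla HEK293H cells. These cells had been exposed 17 h at 37 C to compounds together with rosiglitazone at 50 nM final, with the beta-lactamase readout taken in the same wells.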

[16] = qHTS assay for small molecule agonists of the antioxidant response element (ARE) signaling pathway - cell viability counter screen (AID 743203; calls by dose curve; note: potency is the fitted concentration of half-maximal effect; nearly all actives have a fitted effect of over 55% in size); conditions: ARE-bla HepG2 viability, CellTiter-Glo luminescence, 16 h; viability change, negative = cytotoxic: at 73.3 µM (top of the series)
Outline: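 ARE-bla HepG2 cells were plated, rested 5 h at 37C/5% CO2, then exposed to compounds in DMSO for 16 h. Viability was read as CellTiter-Glo luminescence after 30 min at room temperature, in the same wells as the ARE screen.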

[17] = qHTS assay for small molecule activators of the heat shock response signaling pathway (AID 743210; active = well fitted activation curve with a large enough effect in the signal ratio in the repeat runs, with a control signal flat, not every such curve was filed as active; inconclusive = weak or mixed curves; the % refers to the signal ratio; note: potency is the fitted concentration of half-maximal effect); conditions: HeLa HSE-bla reporter, beta-lactamase ratio, 5 h; activation: at 62.6 µM (top of the series)
Outline: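 HeLa HSE-bla cells, overnight plating; cpd in DMSO 5 h, 37 C; LiveBLAzer B/G FRET substrate 2.5 h RT; fluorescence intensity read.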

[18] = target: Peroxisome proliferator-activated receptor delta (Homo sapiens) (UniProt Q03181); assay: qHTS assay to identify small molecule antagonists of the peroxisome proliferator-activated receptor delta (PPARd) signaling pathway (AID 743215; active = well fitted inhibition curve with a large enough effect in the signal ratio in the repeat runs, not every such curve was filed as active; inconclusive = weak or mixed curves, or effect the other way; inactive = no such curve, though single readings can be large or run the other way; the % refers to the signal ratio;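 note: cells stimulated with agonist L165041 at 300 nM final during compound exposure; potency is the fitted concentration of half-maximal effect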); conditions: HEK293H PPARd-UAS-bla, beta-lactamase FRET ratio, antagonist, 17 h; ratio activity, negative = inhibition: at 62 µM (top of the series) unless noted
Outline: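 PPARd-bla HEK293H cells (UAS-bla reporter) preincubated 5 h, then given compound plus 300 nM final L165041 agonist for 17 h at 37 C. Beta-lactamase activity read by LiveBLAzer B/G FRET substrate fluorescence after 2 h at room temperature.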
Tags give direction and shape of the fitted curve or compound fluorescence and quenching.

Row | SMILES | Potency [1] | Potency [2] | Potency [3] | Potency [4] | Potency [5] | viability change, negative = cytotoxic [6] | Potency [7] | Potency [8] | Potency [9] | Potency [10] | activation [11] | Potency [12] | Potency [13] | Potency [14] | Potency [15] | Potency [16] | Potency [17] | Potency [6] | Potency [18] | activity change, negative = cytotoxicity [10]
1 | CC1=C(C(=O)OC(C)C)C(c2cccc([N+](=O)[O-])c2)C(C(=O)OC2CN(C(c3ccccc3)c3ccccc3)C2)=C(N)N1 (stereo unspecified) | inconclusive: 33.5 µM [falling, single point] | inconclusive: 33.5 µM [cytotoxic] | inconclusive: 21.1 µM [falling, partial curve] | active: 10.6 µM | inconclusive: 6.68 µM [rising, single point] | inconclusive: -47.4% [cytotoxic] | active: 29.8 µM | active: 13.3 µM | inconclusive: 26.6 µM [falling, partial curve] | active: 26.6 µM | inconclusive: -24.6% | inconclusive: 23.9 µM [rising, single point] | inconclusive: 33.5 µM [cytotoxic, single point] | active: 16.9 µM |  |  |  |  |  | 
2 | Oc1c(Cl)cc(Cl)c(Cl)c1Cc1c(O)c(Cl)cc(Cl)c1Cl | inconclusive: 11.9 µM [falling, full curve] |  |  | active: 21.8 µM and active: 21.9 µM and inactive |  |  |  | active: 21.8 µM and active: 24.5 µM and inconclusive: 33.5 µM [cytotoxic, single point] |  |  |  |  |  | active: 54.8 µM and active: 27.5 µM and active: 9.52 µM | active: 173 nM and active: 977 nM and active: 1.68 µM | active: 24.3 µM and active: 8.63 µM and active: 8.41 µM | inconclusive: 48.9 µM and inconclusive: 49 µM and inconclusive: 16.8 µM | active: 38.8 µM and active: 24.5 µM and inconclusive: 13.3 µM [cytotoxic, full curve] |  | 
3 | NCc1cccc(C2CCN(C(=O)c3ccc(C#Cc4ccccc4F)o3)CC2)c1 | inconclusive: 68.6 µM [falling, single point] |  | inconclusive: 61.1 µM [falling, partial curve] |  | inconclusive: 61.6 µM |  | inconclusive: 61.6 µM [inhibitor, single point] | active: 34.7 µM |  |  | inconclusive: 3.9% | inconclusive: 24.5 µM [inhibitor] |  | active: 34.7 µM | active: 19.5 µM | active: 48.6 µM | inconclusive: 58.2 µM | active: 49 µM | inconclusive: 54.9 µM [cytotoxic, partial curve, poor fit] | inconclusive: -36.2%
